{"source": "PubChem BioAssay AID651820", "about": "(National Center for Advancing Translational Sciences (NCATS), 2012)", "note": "Out of some 340,000 compounds screened, about 12,000 (3.5%) were called active. This list was built around the results that the source calls inconclusive (neither active nor inactive); the mix of calls is not that of the screen. Calls come from the whole dose curve; as a rule, active = well fitted inhibition curve with a large enough effect; inconclusive = small, poorly fitted or top-dose-only effect, or another doubt; inactive = no such curve, though single readings can be large or run the other way. No potency is given beside an inconclusive call; the fits are too rough. Potency is the fitted concentration of half-maximal effect; tags give direction and shape of the fitted curve."}
{"assay": "qHTS Assay for Inhibitors of Hepatitis C Virus (HCV)", "conditions": "Huh7.5.1 HCVcc-Cre (HCVcc is cell-culture hepatitis C virus) infection, luciferase reporter, 44 h; series mostly up to 41.8 µM", "outline": "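Antiviral activity was scored by luciferase reporter output from cells infected with HCVcc-Cre (~0.5 moi) in presence of compound, 44 h infection period, cells seeded 1,000/well 4 h prior.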"}
{"smiles": "C/C=C1\\COC(C(=O)NCc2cccc(OC)c2OC)(C(F)(F)F)C=C1C=C1CCCCC1", "note": "(stereo not given)", "Potency": "inconclusive [inhibitor, single point]"}
{"smiles": "O=[N+]([O-])c1ccc(NN=Cc2cccc3ccccc23)nc1", "Potency": "inactive"}
{"smiles": "COc1ccc(N2CCN(C(=O)COCc3cc(-c4ccc5c(c4)OCO5)on3)CC2)cc1", "Potency": "inactive"}
{"smiles": "Cc1ccc(COc2ccsc2C(=O)O)cc1", "Potency": "inactive"}
{"smiles": "Cc1nn2c(COc3ccc(NC(=O)c4ccccc4)cc3)nnc2c2ccccc12", "Potency": "inconclusive [inhibitor, single point]"}
{"smiles": "CC/C(=N/NC(=O)c1ccccc1O)c1c(C)[nH]n(-c2ccccc2)c1=O", "Potency": "inconclusive [inhibitor, single point]"}
{"smiles": "O=C1CC(=C2c3ccccc3-c3ccccc32)C(=O)N1CCCCN1CCN(c2ccccc2)CC1", "Potency": "inconclusive [inhibitor, partial curve]"}
{"smiles": "CCOC(=O)Cn1nc(Cc2ccccc2)c2ccccc2c1=O", "Potency": "inconclusive [inhibitor, single point]"}
{"smiles": "CCOC(=O)c1c(C)[nH]c(N=Nc2ccc(C)cc2)c1C", "Potency": "inconclusive [inhibitor, partial curve]"}
{"smiles": "CCCn1c(NC(=O)c2ccco2)nc2ccccc21", "Potency": "inconclusive [inhibitor, partial curve]"}
{"smiles": "C/C(=N\\NC(=O)CNC(=O)C(c1ccccc1)c1ccccc1)c1ccc(C)cc1", "Potency": "inconclusive [inhibitor, partial curve]"}
{"smiles": "O=C1COc2ccc(C(=O)C[n+]3cccc(O)c3)cc2N1", "Potency": "inconclusive [inhibitor, single point]"}
{"smiles": "COc1ccc(CNC(=O)C/C(C)=N/NC(=O)c2ccc([N+](=O)[O-])cc2Cl)cc1", "Potency": "inactive"}
{"smiles": "CCCc1[nH]n(-c2ccc(F)cc2)c(=O)c1C=Nc1ccc(C)cc1", "Potency": "inconclusive [inhibitor, single point]"}
{"smiles": "Cc1c(C(=O)OCC(=O)N2CC(=O)Nc3ccccc32)oc2ccccc12", "Potency": "inconclusive [inhibitor, single point]"}
{"smiles": "COc1ccc(S(=O)(=O)N2CCOC23CCN(S(=O)(=O)c2ccc(C)cc2)CC3)cc1", "Potency": "inconclusive [inhibitor, single point]"}
{"smiles": "Cn1c(=O)c2c(nc(SCC(=O)c3cccs3)n2Cc2ccc(F)cc2)n(C)c1=O", "Potency": "active: 5.01 µM"}
{"smiles": "CC(C)(C)c1ccc(O)c(N=Cc2c(O)ccc3ccccc23)c1", "Potency": "inconclusive [inhibitor, single point]"}
{"smiles": "Cc1ccc(C(=O)NNC(=O)c2ccncc2)cc1[N+](=O)[O-]", "Potency": "inactive"}
{"smiles": "COc1ccc(NC(=O)CSc2nnc(Cn3c(=O)sc4ccccc43)n2C)c(OC)c1", "Potency": "inconclusive [inhibitor, partial curve]"}
{"smiles": "COc1ccc(NC(=O)CCCn2c(=S)[nH]c3ccccc3c2=O)cc1", "Potency": "inconclusive [inhibitor, single point]"}
{"smiles": "Cc1ccccc1NC(=O)COc1coc(CN2CCN(c3ccccc3)CC2)cc1=O", "Potency": "inconclusive [inhibitor, single point]"}
{"smiles": "CCOc1ccc(OCCOCCN2CCCC2)cc1", "Potency": "inactive"}
{"smiles": "O=C(c1ccc(F)cc1)N1CCN(S(=O)(=O)c2ccc(Br)cc2)CC1", "Potency": "inconclusive [inhibitor, single point]"}
{"smiles": "CCCCCCc1cc2cc(C(=O)Nc3ccccc3)c(=O)oc2cc1O", "Potency": "active: 4.47 µM"}
{"smiles": "CCCn1c(SC(C)C(=O)NCC2CCCO2)nc2cc(Cl)ccc2c1=O", "note": "(stereo not given)", "Potency": "inconclusive [inhibitor, full curve, poor fit]"}
{"smiles": "COc1cc(C(=O)O)ccc1OCc1ccncc1", "Potency": "inactive"}
{"smiles": "COc1ccc(N2C(=O)CN(Cc3ccc(OC)c(OC)c3)C2=S)cc1", "Potency": "inconclusive [inhibitor, single point]"}
{"smiles": "NS(=O)(=O)c1ccc(NC(=O)c2cccc(N3C(=O)c4ccccc4C3=O)c2)cc1", "Potency": "inactive"}
{"smiles": "COc1ccc(Cl)cc1NC(=O)CN(C)CC(=O)NC(C)c1ccccc1", "note": "(stereo not given)", "Potency": "inconclusive [inhibitor, partial curve]"}
{"smiles": "Cc1ccc(NC(=O)C2CCN(C(=O)c3ccc(Cl)cc3)CC2)nc1", "Potency": "inconclusive [inhibitor, single point]"}
{"smiles": "O=C(NNC(=S)Nc1ccc(Cl)c(Cl)c1)c1ccccn1", "Potency": "active: 4.47 µM"}
{"smiles": "Cc1nc(N2CCN(Cc3ccccc3)CC2)[nH]c(=O)c1C", "Potency": "inactive"}
{"smiles": "CCC(C)n1c(SCC(=O)NCc2ccco2)nnc1-c1cccc(S(=O)(=O)N2CCOCC2)c1", "note": "(stereo not given)", "Potency": "inconclusive [inhibitor, single point]"}
{"smiles": "O=C1N/C(=C/c2ccc(N3CCOCC3)o2)C(=O)N1c1ccccc1", "Potency": "inconclusive [inhibitor, partial curve, poor fit]"}
{"smiles": "O=C(COc1ccc(Br)cc1)N1CCN(c2ccc([N+](=O)[O-])c(N3CCCCC3)c2)CC1", "Potency": "inconclusive [inhibitor, single point]"}
{"smiles": "CCc1cccc(CC)c1NC(=O)CN1C2CCCC1CC(NC(=O)Nc1cccc(OC)c1)C2", "note": "(stereo not given)", "Potency": "inconclusive [inhibitor, single point]"}
{"smiles": "COc1ccc(CCNC(=O)c2ccc(CNS(=O)(=O)c3ccc(C(C)(C)C)cc3)cc2)cc1OC", "Potency": "inconclusive [inhibitor, single point]"}
{"smiles": "CC1CCCCC1NC(=O)CCCCCn1c(=S)[nH]c2ccsc2c1=O", "note": "(stereo not given)", "Potency": "inactive"}
{"smiles": "CC(C)CCN1CCN(Cc2ccon2)CC1CCO", "note": "(stereo not given)", "Potency": "inactive"}
{"smiles": "CCn1c([N+](=O)[O-])nc2c1c(=O)[nH]c(=O)n2C", "Potency": "active: 11.2 µM"}
{"smiles": "CC(C)(C)c1cc(-c2nc(N)nc(N)n2)c(O)c(C(C)(C)C)c1", "Potency": "inconclusive [inhibitor, partial curve]"}
{"smiles": "CC1(C(=O)Nc2nnc(C(C)(C)C)s2)Cc2ccccc2C(=O)O1", "note": "(stereo not given)", "Potency": "inactive"}
{"smiles": "CCOC(=O)NC(=O)C(=CNc1cccc(C)c1)C(=O)NC(=O)OCC", "Potency": "inactive"}
{"smiles": "Cc1ccc(S(=O)(=O)Nc2cc(C(=O)NCCN(C)C)ccc2N2CCCCC2)cc1", "Potency": "inconclusive [inhibitor, single point]"}
